Assay in all cases: universal protein binding microarray (PBM)
Holding throughout (conditions): transcription factors of Arabidopsis thaliana; high values mean tight binding; most listed sequences are background and not binding sites; double strand, one strand shown

The target of assay [1] is T1, GST-ANAC055(1-171) (UniProt Q9LDY8).
T1 sequence: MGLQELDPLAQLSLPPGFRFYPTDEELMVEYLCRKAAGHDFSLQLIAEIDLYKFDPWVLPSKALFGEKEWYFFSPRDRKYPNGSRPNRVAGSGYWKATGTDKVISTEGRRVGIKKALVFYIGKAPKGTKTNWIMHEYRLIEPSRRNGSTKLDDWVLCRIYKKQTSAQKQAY

Assay [2] has as its target T2, GST-ATAF1 NAC domain (UniProt Q39013).
T2 sequence: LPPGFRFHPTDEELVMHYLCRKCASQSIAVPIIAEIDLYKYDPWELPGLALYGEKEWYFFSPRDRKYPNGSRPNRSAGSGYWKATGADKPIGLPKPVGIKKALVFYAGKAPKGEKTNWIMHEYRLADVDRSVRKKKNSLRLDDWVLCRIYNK

Assay [3] addresses T3, GST-ANAC092(1-285) full length (UniProt Q9FKA0).
T3 sequence: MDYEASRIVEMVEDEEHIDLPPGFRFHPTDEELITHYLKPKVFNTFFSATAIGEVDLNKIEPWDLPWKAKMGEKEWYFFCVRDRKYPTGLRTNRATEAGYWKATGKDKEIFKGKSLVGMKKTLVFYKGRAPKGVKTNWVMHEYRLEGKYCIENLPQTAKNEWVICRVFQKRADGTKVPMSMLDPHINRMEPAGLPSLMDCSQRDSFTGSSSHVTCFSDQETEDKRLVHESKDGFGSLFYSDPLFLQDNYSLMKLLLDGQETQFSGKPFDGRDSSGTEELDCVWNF

The target in assay [4] is T4, GST-NST2(1-184) (UniProt Q9M274).
T4 sequence: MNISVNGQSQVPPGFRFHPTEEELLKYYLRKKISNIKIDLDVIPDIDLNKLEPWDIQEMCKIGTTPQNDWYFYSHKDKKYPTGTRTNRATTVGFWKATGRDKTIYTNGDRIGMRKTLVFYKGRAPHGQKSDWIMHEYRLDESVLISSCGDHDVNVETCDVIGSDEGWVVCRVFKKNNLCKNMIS

For assay [5], the target named is T5, GST-SND1(1-203) (UniProt Q9LPI7).
T5 sequence: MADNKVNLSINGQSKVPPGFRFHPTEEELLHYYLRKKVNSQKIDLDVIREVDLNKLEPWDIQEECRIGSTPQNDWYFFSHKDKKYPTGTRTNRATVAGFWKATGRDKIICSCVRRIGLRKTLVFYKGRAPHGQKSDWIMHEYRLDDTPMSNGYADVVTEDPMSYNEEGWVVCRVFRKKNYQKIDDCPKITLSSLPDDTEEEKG

The target of assay [6] is T6, GST-VND7 NAC domain (UniProt Q9C8W9).
T6 sequence: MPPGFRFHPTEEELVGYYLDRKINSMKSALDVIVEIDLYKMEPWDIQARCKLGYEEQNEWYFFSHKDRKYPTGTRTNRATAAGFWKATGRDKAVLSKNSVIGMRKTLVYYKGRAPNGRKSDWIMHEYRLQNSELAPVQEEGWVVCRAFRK

In assay [7] the target is T7, GST-VOZ2 (Arabidopsis thaliana) (UniProt Q9SLB9).
T7 sequence: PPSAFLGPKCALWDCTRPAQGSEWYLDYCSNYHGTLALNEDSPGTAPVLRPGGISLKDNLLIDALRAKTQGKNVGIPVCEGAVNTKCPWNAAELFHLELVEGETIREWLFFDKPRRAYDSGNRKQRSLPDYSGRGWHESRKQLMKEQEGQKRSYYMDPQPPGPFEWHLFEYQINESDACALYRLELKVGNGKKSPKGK

In assay [8] the target is GST-WRKY1(266-371) (UniProt Q9SI37).
In assay [9] the target is T8, GST-ANAC092(1-176) (UniProt Q9FKA0).
T8 sequence: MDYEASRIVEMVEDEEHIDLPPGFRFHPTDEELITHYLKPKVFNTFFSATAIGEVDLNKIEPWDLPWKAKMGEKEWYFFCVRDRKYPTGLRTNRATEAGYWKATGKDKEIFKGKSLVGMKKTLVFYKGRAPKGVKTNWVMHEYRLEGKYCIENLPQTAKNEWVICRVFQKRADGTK

Assay [10] addresses GST-NTL6(1-168) (UniProt Q9SCK6).
The target of assay [11] is T9, GST-ANAC019 NAC domain (UniProt Q9C932).
T9 sequence: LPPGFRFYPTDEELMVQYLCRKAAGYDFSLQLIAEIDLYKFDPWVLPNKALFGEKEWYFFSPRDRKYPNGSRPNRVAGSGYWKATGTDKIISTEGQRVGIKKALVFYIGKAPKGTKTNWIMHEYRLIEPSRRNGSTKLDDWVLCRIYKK

For assay [12], the target named is T10, GST-NAP(1-166) (UniProt O49255).
T10 sequence: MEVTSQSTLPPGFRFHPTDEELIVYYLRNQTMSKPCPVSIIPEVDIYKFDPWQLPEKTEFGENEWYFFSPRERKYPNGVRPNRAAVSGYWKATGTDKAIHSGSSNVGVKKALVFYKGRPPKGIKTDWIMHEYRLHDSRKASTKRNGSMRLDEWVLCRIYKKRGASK

Assay [13] has as its target T11, GST-NTL8 NAC domain (UniProt Q9XIN7).
T11 sequence: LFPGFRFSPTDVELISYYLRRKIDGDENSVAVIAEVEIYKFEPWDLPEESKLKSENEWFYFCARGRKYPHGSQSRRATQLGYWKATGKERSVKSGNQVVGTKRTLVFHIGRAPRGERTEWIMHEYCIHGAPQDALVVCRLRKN

The entries are a selection whose mix differs from that of the whole data set. For part of these data: At the low end of the ranking, values are background and their order means little. The list shows a part of the results. For part of these data: The exact form of the protein is not confirmed.

Consider AGAGGTAA, for which the binding signal in assay [1] is 0.0996 E-score; in [2] it was 0.106 E-score; in [3] it was 0.0189 E-score; in [4] it was 0.049 E-score; in assay [5] it was -0.0037 E-score; in [6], -0.0261 E-score. The binding signal in assay [7] was -0.00824 E-score; in [8], -0.0457 E-score.
Take CATTGACG: the binding signal in assay [9] was 0.0178 E-score; in [10] it was -0.0472 E-score; in assay [11] it was -0.05 E-score; in assay [1], -0.0643 E-score; in [2], -0.00158 E-score; in [12], 0.0312 E-score. The binding signal in assay [4] is -0.0094 E-score; in [13], -0.149 E-score; in [5], -0.0678 E-score; in assay [6] it was -0.154 E-score; in assay [7], -0.0109 E-score.
With ATATTGAC, the binding signal in [9] is -0.0563 E-score; in [10], 0.00136 E-score; in assay [11], -0.1 E-score; in assay [1], 0.0422 E-score; in assay [3] it was 0.0114 E-score; in [12], 0.178 E-score. Besides, the binding signal in assay [4] was 0.0439 E-score; in assay [13] it was -0.0853 E-score; in assay [5], -0.0493 E-score; in assay [7], 0.109 E-score; in [8] it was 0.453 E-score.
In the case of ACAGGGAA, the binding signal in assay [11] was -0.041 E-score; in assay [2], -0.0736 E-score; in [3] it was -0.00859 E-score; in [5] it was 0.108 E-score; in assay [6] it was -0.012 E-score; in [7], 0.052 E-score. For the same sequence, the binding signal in assay [8] was -0.0105 E-score.
On to GTGGTCAA, for which the binding signal is -0.0341 E-score in [10]; -0.013 E-score in assay [11]; 0.113 E-score in assay [1]; 0.0165 E-score in [3]; -0.0413 E-score in assay [12]; -0.0905 E-score in [4]. Further, the binding signal in [13] is -0.0212 E-score; in assay [5], -0.0551 E-score; in assay [6], 0.0105 E-score; in assay [7] it was 0.0727 E-score.
As to AATTGACC, the binding signal in [9] is 0.0284 E-score; in assay [10], -0.0267 E-score; in [11] it was -0.0179 E-score; in assay [3] it was 0.0323 E-score; in [12], -0.0234 E-score; in [13], 0.0822 E-score. Also, the binding signal in assay [5] was 0.0323 E-score; in [6], 0.0269 E-score; in assay [7] it was 0.158 E-score.
In the case of TACGCCAA, the binding signal is 0.309 E-score in [2]; 0.0428 E-score in [12]; 0.0846 E-score in assay [13]; 0.454 E-score in assay [5]; 0.244 E-score in assay [6]; 0.187 E-score in assay [7]. The binding signal in assay [8] is -0.138 E-score.
Consider AAAGTCAT, for which the binding signal in [9] is -0.0947 E-score; in assay [10], 0.00983 E-score; in assay [11], -0.0526 E-score; in [1] it was 0.0225 E-score; in assay [12], 0.0502 E-score; in assay [13] it was 0.00176 E-score. The results for the binding signal in assay [5], in [7] and in assay [8] were 0.162 E-score, -0.0359 E-score and 0.428 E-score, respectively.
Regarding AGTCAACG, the binding signal is 0.0152 E-score in assay [9]; 0.0192 E-score in [10]; 0.00777 E-score in [1]; 0.0469 E-score in [2]; 0.0565 E-score in assay [12]; -0.0613 E-score in [13]. The binding signal in assay [5] was found to be 0.0187 E-score; in [6], 0.0338 E-score; in assay [7], 0.0056 E-score.
Take GTCAACAC: the binding signal in [10] was -0.00594 E-score; in [2], 0.092 E-score; in [13], 0.00296 E-score; in assay [5], 0.134 E-score; in assay [6], 0.154 E-score; in [7] it was -0.00119 E-score.
CCTTACCC: the binding signal in assay [9] was 0.0229 E-score; in assay [10] it was 0.366 E-score; in [11] it was -0.0309 E-score; in assay [1], -0.111 E-score; in [2] it was -0.0121 E-score; in assay [12], -0.000545 E-score. In addition, the binding signal in [4] was -0.0517 E-score; in [13] it was 0.404 E-score; in [5], 0.167 E-score; in [7], 0.187 E-score; in assay [8], -0.0586 E-score.
As to TTCGTCAA, the binding signal in assay [9] was -0.018 E-score; in assay [10], 0.0728 E-score; in assay [11], -0.069 E-score; in assay [12] it was 0.0113 E-score; in assay [4], 0.0662 E-score; in assay [13], -0.156 E-score. The binding signal in assay [5] was -0.0342 E-score; in assay [6], -0.0377 E-score; in [7], -0.0162 E-score.
On to ATTAGTCA, for which the binding signal in [9] is 0.0025 E-score; in assay [10], -0.107 E-score; in [11], -0.0828 E-score; in assay [1] it was 0.0956 E-score; in assay [3], 0.0225 E-score; in assay [12], -0.0764 E-score. For the same sequence, the binding signal was -0.0582 E-score in [4]; -0.0474 E-score in [13]; -0.0574 E-score in assay [5]; -0.0672 E-score in assay [6]; 0.000215 E-score in assay [7].
Turning to ATTGACCA, the binding signal was 0.0183 E-score in assay [10]; -0.0895 E-score in assay [11]; -0.0299 E-score in assay [12]; -0.0512 E-score in assay [4]; 0.163 E-score in [13]; -0.0675 E-score in assay [5]. Moreover, the binding signal in assay [6] is 0.0794 E-score; in [7], 0.11 E-score.

(Values after article PMC4081100.)
